# Results: the supplement of paper PMC4604168 (melanoma cell lines)
# The other results are listed elsewhere or left out. Single values are uncertain, as repeats are few or missing.
# Columns and labels:
# Assay in all cases: cell count relative to DMSO control; melanoma cells; higher = more viable cells
# Conditions in all cases: library dose: standard library concentration; 72 h
# SkMel28 = system: SkMel28
# SkMel2 = system: SkMel2
# SkMel30 = system: SkMel30
# SkMel5 = system: SkMel5
# UACC257 = system: UACC257
# UACC62 = system: UACC62
# WM115 = system: WM115
# WM1716 = system: WM1716
# WM1745 = system: WM1745
# WM3526 = system: WM3526
# 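Also: cells treated in 1,536-well plates, then fixed and DAPI-stained, with nuclei counted from automated high-throughput microscope images.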
Compound,cell count (SkMel28),cell count (SkMel2),cell count (SkMel30),cell count (SkMel5),cell count (UACC257),cell count (UACC62),cell count (WM115),cell count (WM1716),cell count (WM1745),cell count (WM3526)
"CN(NC(=O)CC(=O)NN(C)C(=S)c1ccccc1)C(=S)c1ccccc1 + COc1cc(N2CCC(N3CCN(C)CC3)CC2)ccc1Nc1ncc(Cl)c(Nc2ccccc2S(=O)(=O)C(C)C)n1 [NVP-TAE684] (first compound 0.03 µM, partner dose 0.4 µM)",17.8%,44.8%,84.1%,28%,86.3%,41.6%,14.3%,69.4%,10.5%,79.2%
"CCCCCCCCc1ccc(CCC(N)(CO)CO)cc1 [fingolimod] + C[C@@H]1CCN(C(=O)CC#N)C[C@@H]1N(C)c1ncnc2[nH]ccc12 [CP690550] (first compound 10 µM, partner dose 5 µM)",0.321%,1.72%,12.2%,76%,77%,11.5%,7.99%,37.2%,4.15%,38.2%
"Cc1ccc(NC(=O)c2cccc(N(C)C)c2)cc1NC(=O)c1ccc(O)cc1 + CN(C)S(=O)(=O)c1ccc2c(c1)/C(=C/c1cc3c([nH]1)CCCC3)C(=O)N2 [SU6656] (first compound 10 µM, partner dose 2 µM)",50.9%,72.5%,92.2%,52.1%,87.2%,89.5%,46.2%,64.1%,42.8%,87.5%
"Cc1ccc(NC(=O)c2cccc(N(C)C)c2)cc1NC(=O)c1ccc(O)cc1 + COc1ccc(COc2ccc(Cc3cnc(N)nc3N)cc2OC)cc1 [GW2580] (first compound 10 µM, partner dose 5 µM)",66.5%,91.4%,69.2%,76.7%,83.5%,94.1%,106%,92.8%,96.8%,87.3%
"CN(NC(=O)CC(=O)NN(C)C(=S)c1ccccc1)C(=S)c1ccccc1 + N#Cc1c(O)c2c(-c3ccc(-c4ccccc4O)cc3)csc2[nH]c1=O [A769662] (first compound 0.03 µM, partner dose 10 µM)",5.22%,56.4%,95.5%,58.7%,94.9%,59.2%,32.7%,85.1%,11.1%,83.6%
"CCCCCCCCc1ccc(CCC(N)(CO)CO)cc1 [fingolimod] + O=C(O)c1ccc(-c2c[nH]c3ncc(-c4ccccc4)cc23)cc1C1CCCC1 [GSK650394] (first compound 10 µM, partner dose 0.8 µM)",0.696%,0.687%,14.2%,45.4%,69.8%,21.5%,20.6%,15.2%,3.7%,22%
"COc1cc2c(Oc3ccc4[nH]c(C)cc4c3F)ncnc2cc1OCCCN1CCCC1 [cediranib] + CC(C)CCN1c2nc(Nc3cc(F)c(O)c(F)c3)ncc2N(C)C(=O)C1C [BID1870] (first compound 2 µM, partner dose 1 µM)",58.1%,71.4%,67.2%,92.3%,105%,80.6%,96.8%,85.6%,64.5%,60.3%
"CCc1ccc(CCOc2ccc(CC3SC(=O)NC3=O)cc2)nc1 (stereo not given) [pioglitazone] + CC(C)CCN1c2nc(Nc3cc(F)c(O)c(F)c3)ncc2N(C)C(=O)C1C [BID1870] (first compound 10 µM, partner dose 1 µM)",50.9%,79.2%,86.2%,72.1%,88.6%,92.2%,110%,74%,76.2%,78.9%
"NC(=O)c1ccc(N(C(N)=O)c2c(F)cccc2F)nc1-c1ccc(F)cc1F + Cn1cncc1[C@@](N)(c1ccc(Cl)cc1)c1ccc2c(c1)c(-c1cccc(Cl)c1)cc(=O)n2C [tipifarnib] (first compound 2 µM, partner dose 0.05 µM)",56.4%,76.3%,95.1%,77.2%,87.1%,68.5%,86.2%,77.5%,142%,81.1%
"CCc1ccc(CCOc2ccc(CC3SC(=O)NC3=O)cc2)nc1 (stereo not given) [pioglitazone] + O=c1cc(-c2cccc3c2Sc2ccccc2S3)oc(N2CCOCC2)c1 [KU55933] (first compound 10 µM, partner dose 5 µM)",69.2%,79.9%,94.9%,80.2%,86.3%,94%,93.5%,87.4%,89%,76.9%
"CN(NC(=O)CC(=O)NN(C)C(=S)c1ccccc1)C(=S)c1ccccc1 + COc1ccc(-c2ccc3c(N4CCOCC4)nc(N4C[C@@H](C)O[C@@H](C)C4)nc3n2)cc1CO [KU0063794] (first compound 0.03 µM, partner dose 0.1 µM)",32.3%,67.8%,80.9%,59.5%,88.2%,62.5%,30.7%,81.2%,24.5%,68.4%
"NC(=O)c1ccc(N(C(N)=O)c2c(F)cccc2F)nc1-c1ccc(F)cc1F + Nc1nc(F)nc2c1ncn2[C@@H]1O[C@H](CO)[C@@H](O)[C@@H]1O [fludarabine] (first compound 2 µM, partner dose 1 µM)",3.11%,1.28%,22.7%,33.4%,36.5%,72.7%,96.4%,114%,74.8%,26.1%
"CN(NC(=O)CC(=O)NN(C)C(=S)c1ccccc1)C(=S)c1ccccc1 + COC(=O)c1sccc1S(=O)(=O)Nc1ccc(Nc2ccccc2)cc1OC [GSK0660] (first compound 0.03 µM, partner dose 5 µM)",24.5%,60.3%,96%,44.1%,76%,93.1%,28.3%,84.8%,32.7%,80.1%
"COc1cc2c(Oc3ccc4[nH]c(C)cc4c3F)ncnc2cc1OCCCN1CCCC1 [cediranib] + COC(=O)c1sccc1S(=O)(=O)Nc1ccc(Nc2ccccc2)cc1OC [GSK0660] (first compound 2 µM, partner dose 5 µM)",82.8%,94.9%,83.7%,74.1%,81.2%,82.7%,95.1%,83.3%,83.4%,72.8%
"NC(=O)c1ccc(N(C(N)=O)c2c(F)cccc2F)nc1-c1ccc(F)cc1F + Nc1cccc2c1CN(C1CCC(=O)NC1=O)C2=O [lenalidomide] (first compound 2 µM, partner dose 5 µM)",88.6%,114%,123%,111%,92.1%,79.6%,73.9%,99.9%,88.6%,94.8%
"CCCCCCCCc1ccc(CCC(N)(CO)CO)cc1 [fingolimod] + CC(C)C[C@H](NC(=O)[C@H](Cc1ccccc1)NC(=O)c1cnccn1)B(O)O [Bortezomib] (first compound 10 µM, partner dose 0.005 µM)",1.84%,0.867%,6.06%,20.7%,69.2%,15.5%,14.8%,10.3%,4.54%,16%
"CN(NC(=O)CC(=O)NN(C)C(=S)c1ccccc1)C(=S)c1ccccc1 + Cn1cc(/C=C2\C(=O)Nc3cccnc32)c2ccccc21 [GW441756] (first compound 0.03 µM, partner dose 2 µM)",15.8%,73.6%,68.4%,49.4%,92.5%,44.9%,22.6%,92.7%,30.3%,80.9%
"CCc1ccc(CCOc2ccc(CC3SC(=O)NC3=O)cc2)nc1 (stereo not given) [pioglitazone] + O=S(=O)(c1ccccc1)N(CC(F)(F)F)c1ccc(C(O)(C(F)(F)F)C(F)(F)F)cc1 [T0901317] (first compound 10 µM, partner dose 7 µM)",69.4%,86.5%,84.8%,70.8%,78.7%,81.5%,83.1%,2.57%,64.2%,72.1%
"CCc1ccc(CCOc2ccc(CC3SC(=O)NC3=O)cc2)nc1 (stereo not given) [pioglitazone] + N#Cc1c(O)c2c(-c3ccc(-c4ccccc4O)cc3)csc2[nH]c1=O [A769662] (first compound 10 µM, partner dose 10 µM)",91.3%,89.3%,109%,83.8%,89.5%,104%,85.4%,134%,92.1%,89.4%
"CCCCCCCCc1ccc(CCC(N)(CO)CO)cc1 [fingolimod] + C=CCNC1=C2C[C@@H](C)C[C@H](OC)[C@H](O)[C@@H](C)/C=C(\C)[C@H](OC(N)=O)[C@@H](OC)/C=C\C=C(/C)C(=O)NC(=CC1=O)C2=O [Tanespimycin] (first compound 10 µM, partner dose 0.01 µM)",0.478%,0.537%,8.45%,46.8%,70.8%,23.9%,17.5%,53.6%,7.28%,44.5%
"NC(=O)c1ccc(N(C(N)=O)c2c(F)cccc2F)nc1-c1ccc(F)cc1F + COc1ccc(Cl)c(Nc2nc3ccccc3nc2NS(=O)(=O)c2cccc(NC(=O)C(C)(C)N)c2)c1 [XL147] (first compound 2 µM, partner dose 4 µM)",94.3%,95.4%,78%,87.9%,70.5%,92.9%,101%,109%,82.7%,103%
"CC(C)(C)c1cnc(CSc2cnc(NC(=O)C3CCNCC3)s2)o1 + COc1ccc(COc2ccc(Cc3cnc(N)nc3N)cc2OC)cc1 [GW2580] (first compound 0.05 µM, partner dose 5 µM)",54.4%,83.2%,75.7%,75.8%,80.1%,67.5%,83.5%,83.6%,94.7%,105%
"CC(C)(C)c1cnc(CSc2cnc(NC(=O)C3CCNCC3)s2)o1 + OCCn1cc(-c2cnc3nnn(Cc4ccc5ncccc5c4)c3n2)cn1 [PF04217903] (first compound 0.05 µM, partner dose 5 µM)",42%,71.6%,96.5%,69.1%,87.1%,79%,97.3%,65.2%,70.9%,98.2%
